According to the supplement of paper PMC8728848:
The list shows a part of the results.

Experiments:
Assay in all cases: glycan array binding signal (z-score within array); higher = stronger binding
Settings in all cases: glycan notation: IUPAC condensed, linker removed
[1] = molecular target: Neu5Ac(a2-6)Gal(b1-4)GlcNAc(b1-2)Man(a1-6)Man(b1-4)GlcNAc(b1-4)GlcNAc
Method in brief: (§1)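 Glycan array data came from 3228 arrays in the Consortium for Functional Glycomics database, and only arrays with an available protein sequence were kept. Glycan names were put into IUPAC-condensed notation, and columns mapping to the same glycan were averaged. The binding signal is a within-array Z-score, averaged across arrays of one protein sequence run at different concentrations or buffers and across linkers. A negative Z-score can be read as non-binding.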

[2] = molecular target: Neu5Ac(a2-6)Gal(b1-4)GlcNAc(b1-2)Man(a1-6)[Gal(b1-4)GlcNAc(b1-2)Man(a1-3)]Man(b1-4)GlcNAc(b1-4)GlcNAc
Method in brief: as §1

[3] = molecular target: Neu5Ac(a2-6)Gal(b1-4)GlcNAc(b1-2)Man(a1-6)[GlcNAc(b1-2)Man(a1-3)]Man(b1-4)GlcNAc(b1-4)GlcNAc
Method in brief: as §1

[4] = molecular target: Neu5Ac(a2-6)Gal(b1-4)GlcNAc(b1-2)Man(a1-6)[Man(a1-3)]Man(b1-4)GlcNAc(b1-4)GlcNAc
Method in brief: as §1

[5] = molecular target: Neu5Ac(a2-6)Gal(b1-4)GlcNAc(b1-2)[Neu5Ac(a2-6)Gal(b1-4)GlcNAc(b1-4)]Man(a1-3)[GlcNAc(b1-4)][Neu5Ac(a2-6)Gal(b1-4)GlcNAc(b1-2)[Neu5Ac(a2-6)Gal(b1-4)GlcNAc(b1-6)]Man(a1-6)]Man(b1-4)GlcNAc(b1-4)GlcNAc
Method in brief: as §1

[6] = molecular target: Neu5Ac(a2-6)Gal(b1-4)GlcNAc(b1-2)[Neu5Ac(a2-6)Gal(b1-4)GlcNAc(b1-4)]Man(a1-3)[GlcNAc(b1-4)][Neu5Ac(a2-6)Gal(b1-4)GlcNAc(b1-4)Man(a1-6)]Man(b1-4)GlcNAc(b1-4)GlcNAc
Method in brief: as §1

[7] = molecular target: Neu5Ac(a2-6)Gal(b1-4)GlcNAc(b1-2)[Neu5Ac(a2-6)Gal(b1-4)GlcNAc(b1-6)]Man(a1-6)[Neu5Ac(a2-6)Gal(b1-4)GlcNAc(b1-2)Man(a1-3)][GlcNAc(b1-4)]Man(b1-4)GlcNAc(b1-4)GlcNAc
Method in brief: as §1

[8] = molecular target: Neu5Ac(a2-6)Gal(b1-4)GlcNAc(b1-3)Gal(b1-3)GlcNAc
Method in brief: as §1

[9] = molecular target: Neu5Ac(a2-6)Gal(b1-4)GlcNAc(b1-3)Gal(b1-4)GlcNAc
Method in brief: as §1

[10] = molecular target: Neu5Ac(a2-6)Gal(b1-4)GlcNAc(b1-3)Gal(b1-4)GlcNAc(b1-2)Man(a1-3)[Neu5Ac(a2-6)Gal(b1-4)GlcNAc(b1-3)Gal(b1-4)GlcNAc(b1-2)Man(a1-6)]GalNAc
Method in brief: as §1

[11] = molecular target: Neu5Ac(a2-6)Gal(b1-4)GlcNAc(b1-3)Gal(b1-4)GlcNAc(b1-3)Gal(b1-4)GlcNAc
Method in brief: as §1

[12] = molecular target: Neu5Ac(a2-6)Gal(b1-4)GlcNAc(b1-3)Gal(b1-4)GlcNAc(b1-3)Gal(b1-4)GlcNAc(b1-2)Man(a1-3)[Neu5Ac(a2-6)Gal(b1-4)GlcNAc(b1-3)Gal(b1-4)GlcNAc(b1-3)Gal(b1-4)GlcNAc(b1-2)Man(a1-6)]GalNAc
Method in brief: as §1

[13] = molecular target: Neu5Ac(a2-6)Gal(b1-4)GlcNAc(b1-3)Gal(b1-4)GlcNAc(b1-3)GalNAc
Method in brief: as §1

[14] = molecular target: Neu5Ac(a2-6)Gal(b1-4)GlcNAc(b1-3)Gal(b1-4)GlcNAc(b1-3)[Neu5Ac(a2-6)Gal(b1-4)GlcNAc(b1-3)Gal(b1-4)GlcNAc(b1-6)]GalNAc
Method in brief: as §1

[15] = molecular target: Neu5Ac(a2-6)Gal(b1-4)GlcNAc(b1-3)Gal(b1-4)GlcNAc(b1-6)[Gal(b1-3)]GalNAc
Method in brief: as §1

[16] = molecular target: Neu5Ac(a2-6)Gal(b1-4)GlcNAc(b1-3)Gal(b1-4)[Fuc(a1-3)]GlcNAc(b1-3)Gal(b1-4)[Fuc(a1-3)]GlcNAc
Method in brief: as §1

[17] = molecular target: Neu5Ac(a2-6)Gal(b1-4)GlcNAc(b1-3)GalNAc
Method in brief: as §1

[18] = molecular target: Neu5Ac(a2-6)Gal(b1-4)GlcNAc(b1-3)[Neu5Ac(a2-6)Gal(b1-4)GlcNAc(b1-6)]GalNAc
Method in brief: as §1

[19] = molecular target: Neu5Ac(a2-6)Gal(b1-4)GlcNAc(b1-6)GalNAc
Method in brief: as §1

[20] = molecular target: Neu5Ac(a2-6)Gal(b1-4)GlcNAc(b1-6)[Gal(b1-3)GlcNAc(b1-3)]Gal(b1-4)Glc
Method in brief: as §1

[21] = molecular target: Neu5Ac(a2-6)Gal(b1-4)GlcNAc(b1-6)[Gal(b1-3)]GalNAc
Method in brief: as §1

[22] = molecular target: Neu5Ac(a2-6)Gal(b1-4)GlcNAc6S
Method in brief: as §1

[23] = molecular target: Neu5Ac(a2-6)GalNAc
Method in brief: as §1

[24] = molecular target: Neu5Ac(a2-6)GalNAc(b1-4)GlcNAc
Method in brief: as §1

[25] = molecular target: Neu5Ac(a2-6)GalNAc(b1-4)GlcNAc6S
Method in brief: as §1

[26] = molecular target: Neu5Ac(a2-6)GlcNAc(b1-4)GlcNAc
Method in brief: as §1

[27] = molecular target: Neu5Ac(a2-6)GlcNAc(b1-4)GlcNAc(b1-4)GlcNAc
Method in brief: as §1

[28] = molecular target: Neu5Ac(a2-8)Neu5Ac
Method in brief: as §1

[29] = molecular target: Neu5Ac(a2-8)Neu5Ac(a2-3)Gal(b1-3)GalNAc(b1-4)[Neu5Ac(a2-3)]Gal(b1-4)Glc
Method in brief: as §1

B1: rAAL-2 (Agrocybe aegerita) (protein)
chain: MTSNVITQDLPIPVASRGFADIVGFGLDGVVIGRNAVNLQPFLAVKNFAQNAGGWLTTKHVRLIADTTGTGKGDIVGFGNAGVYVSVNNGKNTFADPPKMVIANFGYDAGGWRVEKHLRYLADIRKIGRADIIGFGEKGVLVSRNNGGLNFGPATLVLKDFGYDAGGWRLDRHLRFLADVTGNGHLDIVGFGDKHVFISRNNGDGTFAPAKSVIDNFCIDAGGWKIGDHPRFVADLTGDGTADIIGCGKAGCWVALNNGGGVFGQVKLVINDFGTDKGWQAAKHPRFIADLTGNGRGDVVGFGNAGVYVALNNGDGTFQSAKLVLKDFGVQQGWTVSKHRRFVVDLTGDGCADIIGFGEKETLVSYNDGKGNFGPVKALTNDFSFSGGKWAPETTVCWMANLDSSRH
glycan array binding signal (z-score) [1]: -0.258 | glycan array binding signal (z-score) [2]: 0.004 | glycan array binding signal (z-score) [3]: -0.249 | glycan array binding signal (z-score) [4]: -0.238 | glycan array binding signal (z-score) [5]: -0.391 | glycan array binding signal (z-score) [6]: -0.237 | glycan array binding signal (z-score) [7]: -0.19 | glycan array binding signal (z-score) [8]: -0.329 | glycan array binding signal (z-score) [9]: -0.212 | glycan array binding signal (z-score) [10]: 0.111 | glycan array binding signal (z-score) [11]: -0.301 | glycan array binding signal (z-score) [12]: 0.107 | glycan array binding signal (z-score) [13]: -0.341 | glycan array binding signal (z-score) [14]: 0.021 | glycan array binding signal (z-score) [15]: 0.107 | glycan array binding signal (z-score) [16]: -0.173 | glycan array binding signal (z-score) [17]: -0.11 | glycan array binding signal (z-score) [18]: -0.268 | glycan array binding signal (z-score) [19]: -0.075 | glycan array binding signal (z-score) [20]: -0.585 | glycan array binding signal (z-score) [21]: -0.383 | glycan array binding signal (z-score) [22]: -0.377 | glycan array binding signal (z-score) [23]: -0.364 | glycan array binding signal (z-score) [24]: -0.288 | glycan array binding signal (z-score) [25]: -0.276 | glycan array binding signal (z-score) [26]: 0.557 | glycan array binding signal (z-score) [27]: 0.582 | glycan array binding signal (z-score) [28]: -0.295 | glycan array binding signal (z-score) [29]: -0.087
